Hit rate of the full screen: of about 220,000 compounds, about 5,700 (2.6%) were called active. Inconclusive results, whose numbers are uncertain, are shown with a selection of clear calls. The call rests on the fitted dose curve; in most records, active means well fitted inhibition curve with a large enough effect; inconclusive means small, poorly fitted or top-dose-only effect; inactive means no such curve, though single readings can be large or run the other way. A potency beside an inconclusive call is a rough fit, not a confirmed value.
The molecules below were run against Lysine-specific demethylase 5B (Homo sapiens) (UniProt Q9UGL1) (assay: Primary screen for KDM5B Histone Demethylases FDH-coupled qHTS). Conditions: FDH-coupled NADH fluorescence (FDH is formaldehyde dehydrogenase); activity change, negative = inhibition: at 57.7 µM (top of the series) unless noted.
Chain of UniProt Q9UGL1 (Q9UGL1 whole entry, looked up): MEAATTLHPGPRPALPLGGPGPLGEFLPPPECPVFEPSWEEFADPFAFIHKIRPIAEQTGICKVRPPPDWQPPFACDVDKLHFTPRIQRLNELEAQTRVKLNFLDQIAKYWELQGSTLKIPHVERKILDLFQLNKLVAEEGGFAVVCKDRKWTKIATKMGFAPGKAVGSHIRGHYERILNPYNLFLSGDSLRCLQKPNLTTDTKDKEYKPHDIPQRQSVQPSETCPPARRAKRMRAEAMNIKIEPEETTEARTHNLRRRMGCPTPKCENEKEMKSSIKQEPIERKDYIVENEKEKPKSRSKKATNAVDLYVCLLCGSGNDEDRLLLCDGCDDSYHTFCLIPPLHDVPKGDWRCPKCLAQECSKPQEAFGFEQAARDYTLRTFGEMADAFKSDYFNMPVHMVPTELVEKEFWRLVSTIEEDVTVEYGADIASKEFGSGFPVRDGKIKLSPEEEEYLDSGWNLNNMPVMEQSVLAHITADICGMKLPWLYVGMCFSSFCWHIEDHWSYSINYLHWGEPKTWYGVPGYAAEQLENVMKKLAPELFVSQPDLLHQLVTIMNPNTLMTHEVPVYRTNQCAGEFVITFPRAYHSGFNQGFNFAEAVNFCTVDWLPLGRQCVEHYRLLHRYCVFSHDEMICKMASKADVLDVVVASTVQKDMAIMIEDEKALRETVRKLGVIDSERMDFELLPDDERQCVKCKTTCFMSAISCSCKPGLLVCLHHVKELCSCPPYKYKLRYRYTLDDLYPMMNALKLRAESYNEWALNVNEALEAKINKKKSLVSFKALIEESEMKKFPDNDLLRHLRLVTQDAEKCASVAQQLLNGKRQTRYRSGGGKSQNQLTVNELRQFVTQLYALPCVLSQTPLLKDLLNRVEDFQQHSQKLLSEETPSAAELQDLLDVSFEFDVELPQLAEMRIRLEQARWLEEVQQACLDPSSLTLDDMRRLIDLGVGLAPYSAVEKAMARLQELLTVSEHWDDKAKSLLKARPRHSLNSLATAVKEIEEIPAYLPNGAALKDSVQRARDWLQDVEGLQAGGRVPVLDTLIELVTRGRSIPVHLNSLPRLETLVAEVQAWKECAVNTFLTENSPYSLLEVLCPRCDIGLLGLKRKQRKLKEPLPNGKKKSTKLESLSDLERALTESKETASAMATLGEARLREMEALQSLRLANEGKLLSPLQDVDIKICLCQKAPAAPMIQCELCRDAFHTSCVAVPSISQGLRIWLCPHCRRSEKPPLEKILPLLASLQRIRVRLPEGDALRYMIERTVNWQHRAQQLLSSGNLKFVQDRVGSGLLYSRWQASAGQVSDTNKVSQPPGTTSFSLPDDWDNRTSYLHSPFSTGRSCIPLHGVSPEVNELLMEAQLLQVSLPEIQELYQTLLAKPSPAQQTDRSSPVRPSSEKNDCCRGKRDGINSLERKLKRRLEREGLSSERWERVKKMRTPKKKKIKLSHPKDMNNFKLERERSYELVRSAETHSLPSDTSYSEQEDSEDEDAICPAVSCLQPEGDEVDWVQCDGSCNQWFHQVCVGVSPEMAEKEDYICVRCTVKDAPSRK
Source text: Assay Submitter (PI): Qin Yan, Ph.D. (Yale University) and Xiaodong Cheng, Ph.D. (MD Anderson) This project was funded as part of the NCI NEXT Program and Chemical Biology Consortium (CBC) The histone demethylases, KDM5A and KDM5B catalyze the demethylation of lysine 4 on histone H3 (H3K4me3/2). They are overexpressed in a variety of cancers and have been implicated in cancer cell growth, metastasis, drug resistance, and tumor growth. KDM5A is amplified and overexpressed in breast and gastric cancer; and is translocated in leukemia. While KDM5B is highly expressed in human mammary tumors and breast cancer cell lines, but not in normal adult breast tissue. Moreover, knockdown of KDM5B leads to upregulation of tumor suppressor genes, including BRCA1. The goal of this project is to employ qHTS to identify selective small molecule inhibitors of KDM5A/B demethylase activity to better understand the role of KDM5 in cancer and to develop novel therapies. We employed an FDH-coupled assay previously reported by Sakurai et al. to monitor in vitro KDM5 demethylase activity. Compounds showing dose response inhibition are re-acquired, validated, and tested for non-specific interference with the formaldehyde dehydrogenase (FDH) counterscreen. True inhibitors are validated using an AlphaLisa secondary screen, which employs an H3K4(me2-1)-specific antibody to monitor demethylation of a biotin-tagged H3K4(me3) peptide substrate. Inhibitors are profiled against KDM4A and KDM6A AlphaLisa counterscreens to determine level of demethylase specificity; and against the TruHits counterscreen to eliminate non-specific inhibitory activity on the AlphaLISA detection method. Selective inhibitors identified from the primary and secondary screening are tested in cells using immunofluorescence to monitor global H3K4 tri-methylation as a measure of KDM5A/B inhibition. Early Translation Branch (ETB) National Center for Advancing Translational Sciences (NCATS), Rockville, MD National Institute of Health (NIH), Bethesda, Maryland [1] Sakurai, M et al. A miniaturized screen for inhibitors of Jumonji histone demethylases. Mol Biosyst. 2010 Feb;6(2):357-64. doi: 10.1039/b912993f. Epub 2009 Oct 8.
Materials: 1536-well Black, solid bottom, medium binding assay plate is purchased from Greiner Bio-one. The enzymes (KDM5B) and substrate (H3K4me3/2) are provided by the principal investigators. The buffer for this assay is composed of 50mM HEPES at pH 7.5 with 0.01% Tween-20. FDH coupled Demethylase qHTS protocol: Three microliter enzyme mix (buffer + 200nM KDM5BDeltaAP final concentration) is dispensed into the assay plate using the BioRAPTR Flying Reagent Dispenser (FRD; […]). Compound (at various final concentration) and control solution is pin transferred to the assay plate using the Kalypsys 1536-pin tool apparatus. The assay plate is incubated for 10 min at room temperature followed by addition of 1uL substrate mix (buffer + 100uM ascorbic acid, 50uM ferrous ammonium sulfate, 12.5uM H3K4Me3, 25uM a-ketoglutarate, 0.25 mM NAD+, 0.25 U/mL formaldehyde dehydrogenase using the FRD yielding a total reaction volume of 4 uL. Initial fluorescence (Read1) is detected using the PerkinElmer ViewLux plate reader equipped with 340 nm excitation and 450 nm emission filters. The final fluorescence (Read2) signal is obtained after 30 min of room temperature incubation. Delta RFU is calculated (Read2 - Read1) and is used to generated dose response curves.
For `NC(=S)NCc1ccco1`, the “activity change, negative = inhibition” value was inactive: 5.62%. `CC(CC(=O)NCCc1ccccn1)c1ccccc1` (stereo unspecified) was tested, and the “activity change, negative = inhibition” value was inactive: 15%. For `COc1ccc(N2CC3CCC(C2)N3Cc2ccccc2)cc1`, the Potency was inconclusive: 89.1 µM [inhibitor, partial curve, poor fit]. `COc1ccccc1CNc1ncnc2c1c(-c1ccccc1)cn2-c1ccc(Br)cc1` was tested, and the Potency was inconclusive: 31.6 µM [inhibitor, partial curve, poor fit]. With `COC(=O)[C@@H]1Cc2c([nH]c3ccccc23)[C@H]2C[C@@H](N3CCCCC3)C[C@@H](c3ccccc3F)N21` the Potency was inconclusive: 12.6 µM [inhibitor, partial curve]. In the case of `CN1CCN(CCCNC(=O)c2ccc(/C=C3/Sc4ccccc4N(Cc4cccc(Cl)c4)C3=O)cc2)CC1`, the Potency is reported as inconclusive: 28.2 µM [inhibitor, single point]. For `Cc1ccc(C(=O)NCCC(C)C)cc1NC(=O)c1nsc2ccccc12`, the Potency was inconclusive: 28.2 µM [inhibitor, partial curve, poor fit]. With `COc1ccc(NC(=O)c2ccc3c(c2)C2(CCCN(C)C2)CN3Cc2cccnc2)cc1` (stereo unspecified) the “activity change, negative = inhibition” value was inactive: -4.22%. In the case of `CC1=C(C(N)=O)C(c2ccccc2F)n2nc(-c3ccc(Cl)cc3)nc2N1` (stereo unspecified), the Potency is reported as inconclusive: 17.8 µM [inhibitor, partial curve, poor fit]. With `CC(C)Cn1cc(C(=O)NCCCN2CCC(C)CC2)c2c3ccccc3n(C)c2c1=O` the Potency was inconclusive: 25.1 µM [inhibitor, single point]. With `Cc1ccc(CNC(=O)Cn2cc3c(n2)-c2c(oc(C(=O)N4CCOCC4)c2C)CC3)cc1` the Potency was inconclusive: 6.31 µM [inhibitor, full curve, poor fit]. With `CN(C)c1cccc(-c2cnc(Nc3ccc(N4CCOCC4)cc3)c3c2CCO3)c1` the Potency was active: 35.5 µM. For `COC1CCOC2(CCN(C(=O)NCc3ccc(F)cc3)CC2)C1` (stereo unspecified), the “activity change, negative = inhibition” value was inactive: -12.7%. For `CN(C)c1ccc(CN[C@H]2C[C@H]3C(=O)NC[C@@H](CCC(=O)NC4CC4)N3C2)cc1`, the Potency was inconclusive: 35.5 µM [inhibitor, single point]. For `O=C(NCc1noc(Cc2cccs2)n1)C1NCCc2[nH]cnc21` (stereo unspecified), the Potency was inconclusive: 15.8 µM [inhibitor, partial curve]. In the case of `COc1ccc(-c2noc(-c3nnn4c3COC(c3ccc(F)cc3)C4)n2)c(OC)c1` (stereo unspecified), the Potency is reported as inconclusive: 17.8 µM [inhibitor, partial curve]. For `O=C(c1cnccn1)N1CCC(Nc2cccnc2)C1` (stereo unspecified), the Potency was inconclusive: 8.91 µM [inhibitor, partial curve]. In the case of `O=C(c1cnc2c(cnn2Cc2ccccc2)c1)N1CCCc2ccccc21`, the “activity change, negative = inhibition” value is reported as inactive: -11.4%. `COc1ccc(CN2C(=O)O[C@@H]3CN(c4ccnc(SC)n4)C[C@@H]32)cc1OC` was tested, and the “activity change, negative = inhibition” value was inactive: -2.84%. For `Cn1ncc2c(C(=O)NCCc3ccc(Cl)cc3)cc(-c3ccc(Cl)cc3)nc21`, the Potency was inconclusive: 3.55 µM [inhibitor, full curve, poor fit]. With `CCc1c(C)sc(NC(=O)c2cccc(OC)c2)c1C#N` the Potency was inconclusive: 11.2 µM [inhibitor, partial curve, poor fit]. With `CC(C)CCN(C1CCOCC1)C1CCN(Cc2ccc[nH]2)CC1` the Potency was inconclusive: 15.8 µM [inhibitor, partial curve]. With `Cc1cc(C)n(CC(=O)Nc2cc(F)ccc2F)c(=O)c1C#N` the Potency was inconclusive: 6.31 µM [inhibitor, partial curve, poor fit]. `Cc1ccc(C(=O)NCc2nnc3cc(-c4nc(C5CC5)no4)ccn23)cc1F` was tested, and the Potency was inconclusive: 12.6 µM [inhibitor, partial curve, poor fit]. `CCn1c(=O)c2ccnn2c2ccc(C(=O)NCCc3cccnc3)cc21` was tested, and the Potency was active: 31.6 µM. For `Cc1ccc(C(=O)NCC(=O)N(C)Cc2ccc(-c3ccc(Br)cc3)o2)cc1`, the Potency was inconclusive: 25.1 µM [inhibitor, partial curve, poor fit]. In the case of `CNC(=O)[C@@H]1CN(C(=O)c2ccc3cc[nH]c3c2)C[C@H]1C1CCN(C)CC1`, the Potency is reported as active: 20 µM. For `COCCn1c(=O)c2c(n1Cc1ccccc1)CN(Cc1ccccn1)CC2`, the Potency was inconclusive: 35.5 µM [inhibitor, partial curve, poor fit]. `COCCC(=O)N1CCC(Oc2ccccc2-c2nc(C3CC3)no2)C1` (stereo unspecified) was tested, and the Potency was inconclusive: 28.2 µM [inhibitor, partial curve]. With `CN(C)c1ccc(CN[C@H]2CC(C)(C)[C@@H]3C[C@@](C)(O)CC[C@]23CCC(=O)N2CCOCC2)cc1` the “activity change, negative = inhibition” value was inactive: -10.8%. With `COc1cccc(-c2ccccc2NC(=O)C2CCN(Cc3ccccc3F)CC2)c1` the Potency was inconclusive: 25.1 µM [inhibitor, single point]. With `Cc1ccc2c(C(=O)NCc3cc(F)cc(F)c3)cc(NC(=O)C(C)C)cc2n1` the Potency was active: 22.4 µM. In the case of `C=CCNC(=O)NC(=O)Cn1ccnc1`, the “activity change, negative = inhibition” value is reported as inactive: 22.2%. `COc1ccc(N2CC(c3noc(-c4ccc(C)c(C)c4)n3)CC2=O)cc1OC` (stereo unspecified) was tested, and the Potency was inconclusive: 35.5 µM [inhibitor, partial curve, poor fit]. In the case of `COc1ccc(CN2CCc3oc(C)c(C(=O)NC4CCN(C)CC4)c3C2)cc1`, the “activity change, negative = inhibition” value is reported as inactive: -12.1%. For `Cc1nc(/N=C(\N)NC(=O)c2ccccc2N)nc2ccccc12`, the Potency was inconclusive: 39.8 µM [inhibitor, single point]. In the case of `CCN(CC)C(=O)C[C@@H]1CCNC[C@@H]1Cc1cc(-c2ccc(C(C)(C)C)cc2)on1`, the Potency is reported as inconclusive: 50.1 µM [inhibitor, single point]. In the case of `Cc1ccc(S(=O)(=O)c2c(Nc3ccc(C)c(C)c3)sc(C(=O)c3ccc4c(c3)OCO4)c2N)cc1`, the Potency is reported as inconclusive: 35.5 µM [inhibitor, partial curve, poor fit]. With `Cc1cccc(NC(=O)Nc2c[nH]c(=O)[nH]c2=O)c1` the Potency was inconclusive: 25.1 µM [inhibitor, partial curve, poor fit]. For `O=Cc1cccc(-c2cc(C(F)(F)F)ccc2Cl)c1`, the “activity change, negative = inhibition” value was inactive: 7.69% [at 149 µM]. For `CCC(=O)Oc1ccc2c(=O)c(-c3ccc(OC)cc3)c(C)oc2c1`, the Potency was inconclusive: 39.8 µM [inhibitor, single point].

Source: PubChem BioAssay AID1347165 (National Center for Advancing Translational Sciences (NCATS), 2019)
Further: nearly all actives have a fitted effect of over 70% in size.
Potency means the concentration at half of the fitted maximal effect; tags describe the fitted curve by direction and shape.
Wherever activity change, negative = inhibition is given: 0% is about no effect.
